B1: MalK, ATPase subunit of the maltose transporter MalFGK2 (natural protein)
chain: not shown
B2: SecA (natural protein)
chain: not shown

How the values were obtained:
[1] = biological target: MalF, transmembrane subunit of the maltose transporter MalFGK2 ( (bacterial; expressed in E. …, UniProt P02916); experiment: native gel or EMSA
[2] = biological target: the molecule itself; experiment: cryo-EM structure
[3] = biological target: the molecule itself; experiment: native gel or EMSA

Binder | binding result [1] | binding result [2] | stoichiometry N [3]
B1 | binds | binds | –
B2 | – | – | 2

From article PMC12381110 (Nature Communications, 2025)
